In all, about 110,000 compounds were measured (“z-score”: median about -0.1, highest 2% from about 2 on). This is one part of the list. Active and inactive are the calls of the source.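 The calls were made as follows: active = z-score in the third read window above 3 or below -3; inactive = the rest.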

This assay concerns the target Metabotropic glutamate receptor 8 (Rattus norvegicus) (UniProt P70579). Briefly: rat mGluR8 modulators via GIRK flux, primary screen, cell-based, thallium flux, HTS (AID 488969). The following applies: HEK293 rat mGluR8, GIRK (G protein-gated inwardly rectifying potassium channel) thallium flux, FluoZin2; at 10 µM; stronger effect = higher value; submaximal glutamate (EC20) added with thallium.
Chain of UniProt P70579 (P70579 whole entry, looked up): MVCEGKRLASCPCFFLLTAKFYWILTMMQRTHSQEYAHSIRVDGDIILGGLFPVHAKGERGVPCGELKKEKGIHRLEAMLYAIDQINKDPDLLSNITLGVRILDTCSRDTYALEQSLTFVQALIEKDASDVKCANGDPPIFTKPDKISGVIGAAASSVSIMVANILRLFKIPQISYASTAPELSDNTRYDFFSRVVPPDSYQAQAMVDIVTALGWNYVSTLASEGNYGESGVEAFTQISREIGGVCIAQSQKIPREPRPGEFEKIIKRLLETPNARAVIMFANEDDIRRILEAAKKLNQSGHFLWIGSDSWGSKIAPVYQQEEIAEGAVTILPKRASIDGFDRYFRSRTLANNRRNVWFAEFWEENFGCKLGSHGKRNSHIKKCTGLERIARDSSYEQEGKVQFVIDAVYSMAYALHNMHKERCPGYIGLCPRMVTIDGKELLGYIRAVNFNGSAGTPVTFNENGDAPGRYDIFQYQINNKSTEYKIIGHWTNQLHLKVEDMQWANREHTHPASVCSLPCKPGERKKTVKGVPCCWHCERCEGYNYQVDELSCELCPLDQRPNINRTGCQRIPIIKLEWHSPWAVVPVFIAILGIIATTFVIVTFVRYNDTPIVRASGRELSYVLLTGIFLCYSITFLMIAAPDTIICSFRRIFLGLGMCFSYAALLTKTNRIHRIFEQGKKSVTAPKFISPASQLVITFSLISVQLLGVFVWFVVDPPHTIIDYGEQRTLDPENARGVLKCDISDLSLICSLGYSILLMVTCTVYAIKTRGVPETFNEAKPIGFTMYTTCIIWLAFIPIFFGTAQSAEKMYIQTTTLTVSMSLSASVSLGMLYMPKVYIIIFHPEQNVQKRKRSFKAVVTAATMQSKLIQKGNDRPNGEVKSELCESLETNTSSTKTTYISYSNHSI
The compound `Cc1ccc2c(CN3CCN(CCO)CC3)cc(=O)oc2c1C` had a z-score of -0.38.

As for `O=C(O)c1sccc1Oc1ccc(F)cc1[N+](=O)[O-]`, the z-score was -0.0912.

On to `Cc1cc(C)n2nc(C(=O)NCc3ccccc3)nc2n1`, for which the z-score was -0.519.

Compound `CCCN(CCC)S(=O)(=O)c1ccc(C(=O)N2CCOCC2)cc1` returned a z-score of -0.0378.

In turn, `COc1cccc(C2CC(c3c(Cl)cccc3Cl)n3nc(N)nc3N2)c1` (stereo unspecified) gave a z-score of 0.609.

On to `Oc1ccc(Cl)cc1CNc1ccc(Br)cn1`, for which the z-score came out at 0.33.

`CCOC(=O)CCc1c(C)nc2cc(C3CCCN(C(=O)OC(C)(C)C)C3)[nH]n2c1=O` (stereo unspecified): the z-score was -1.27.

`O=C(CSc1ccccc1)Nc1ccccc1C(=O)O`: the z-score was -0.231.

On to `COc1ccc(C(C(C(=O)c2ccco2)N2CCOCC2)N2CCOCC2)cc1` (stereo unspecified), for which the z-score was -0.154.

Compound `CCCN(CCC)S(=O)(=O)c1ccc(NC(=O)Cc2cccs2)cc1` had a z-score of -0.666.

`Cn1c(N2CCN(c3ccccn3)CC2)nc2c1c(=O)n(Cc1ccccc1Cl)c(=O)n2C` displayed a z-score of -0.275.

Take `CCc1ccccc1NC(=O)C1NC(=O)CC1c1ccccc1` (stereo unspecified): the z-score was -0.123.

In turn, `Cc1cc(C)c(S(C)(=O)=O)c(Oc2cccc(Cl)c2)n1` registered a z-score of -0.169.

Regarding `O=c1c2ccccc2nc(-c2ccccc2)n1/N=C/c1ccc([N+](=O)[O-])cc1`, the z-score was active: 6.71.

As for `COc1nnc(-c2ccc(N3CCCCC3)c(NC(C)=O)c2)c2ccccc12`, the z-score came out at 0.0275.

Turning to `CC1=CC(c2ccc(Cl)cc2)n2nc(NS(=O)(=O)c3ccc(C)cc3)nc2N1` (stereo unspecified), the z-score was -0.217.

Compound `Cc1cc(NC(=O)CSc2nnc(-c3cccnc3)n2C)no1` gave a z-score of 0.0216.

Consider `CCOc1ccc(Nc2ncnc3c2cnn3Cc2ccccc2)cc1`, for which the z-score worked out at 2.26.

Regarding `CC(C)c1ccccc1NC(=O)C1CN(S(=O)(=O)c2ccccc2)CCN1S(=O)(=O)c1ccccc1` (stereo unspecified), the z-score is -0.331.

Compound `O=C(CSc1nnc(Cc2cccs2)n1CCc1ccccc1)N1CCCc2ccccc21` registered a z-score of 0.0317.

In the case of `COc1ccc(C=C(C(C)=O)C(C)=O)cc1OC`, the z-score is -0.325.

Consider `CN(/N=C/C=C/c1ccccc1)C1=NS(=O)(=O)c2ccccc21`, for which the z-score was determined as 0.00215.

The compound `CSCCC1NC(=O)N(CC(=O)Nc2c(Cl)cc(Cl)cc2Cl)C1=O` (stereo unspecified) had a z-score of -0.128.

With `Cc1ccc(CNc2nc(N)c([N+](=O)[O-])c(NCc3ccccc3)n2)cc1`, the z-score is -0.0457.

`Cc1cccc(Oc2ncnc3onc(C)c23)c1C` gave a z-score of -0.0551.

Regarding `COc1ccc(Cn2c(=O)sc3ccccc32)cc1`, the z-score is -0.817.

Compound `CCC(C)n1c(=N)c(C#N)cc2c(=O)n3ccccc3nc21` (stereo unspecified) showed a z-score of -0.446.

As to `CC(=O)c1ccc(Nc2nc(NCCO)nc(OC(C(F)(F)F)C(F)(F)F)n2)cc1`, the z-score was -0.215.

Compound `COc1nc(NCC(C)C)nc(Oc2ccc(=O)n(-c3ccccc3)n2)n1` displayed a z-score of -0.109.

Regarding `O=C(NCc1ccccc1)C1COc2ccccc2O1` (stereo unspecified), the z-score was -0.13.

Regarding `O=C(O)c1cc2n(n1)C(C(F)(F)F)CC(c1ccccc1)N2` (stereo unspecified), the z-score was -0.725.

These data come from PubChem BioAssay AID488969 (Vanderbilt High Throughput Screening Facility, 2010).
